{"source": "the RNAGym collection of RNA variant scans (doi:10.1073/pnas.2313332121)", "parents": {"B1": {"name": "TPR 5TU (parent)", "chain": "GGAUCUUCUCGAUCUAACAAAAAAGACAAAUCUGCCACAAAGCUUGAGAGCAUCUUCGGAUGCAGAGGCGGCAGCCUUCGGUGGCGCGAUAGCGCCAACGUUCUCAACUAUGACACGCAAAACGCGUGCUCCGUUGAAUGGAGUUUAUCAUG"}}, "note": "Variants at the floor of the assay are shown more often than the library holds them.", "data": [{"variants_of": "B1", "assay": "polymerase ribozyme fitness, log enrichment relative to wild type (log ratio); higher = more active; in vitro selection for triplet polymerase activity", "method_in_brief": "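Fitness measures genotype enrichment against wild-type enrichment on a logarithmic scale, with inverse-variance-weighted averaging of replicates. The logarithm is base 2, and genotypes were kept only with ≥10 input reads and ≥1 read per output in Illumina sequencing. The sequenced libraries came from one triplicate in vitro selection round, including frozen incubation at −7 °C, of PCR-built, transcribed mutant libraries of each subunit of a heterodimeric triplet polymerase ribozyme.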", "values": [{"variant": "C43U G83A G100U", "polymerase ribozyme fitness (log ratio)": "≤ -4.2"}, {"variant": "C43U G83U G92A", "polymerase ribozyme fitness (log ratio)": "≤ -4.2"}, {"variant": "C43U G141C U144G", "polymerase ribozyme fitness (log ratio)": "≤ -4.2"}, {"variant": "C43U U53A A64U C72G C85A", "polymerase ribozyme fitness (log ratio)": "≤ -4.2"}, {"variant": "C43U U55A C76A C93G G140C", "polymerase ribozyme fitness (log ratio)": "≤ -4.2"}, {"variant": "C43U U55A C93U A106G U111A A138U", "polymerase ribozyme fitness (log ratio)": "≤ -4.2"}, {"variant": "C43U U55A G88C", "polymerase ribozyme fitness (log ratio)": "≤ -4.2"}, {"variant": "C43U U55A G112U U146A", "polymerase ribozyme fitness (log ratio)": "≤ -4.2"}, {"variant": "C43U U55G C93G C99A C129A G152A", "polymerase ribozyme fitness (log ratio)": "≤ -4.2"}, {"variant": "C43U U56A C79U U82G C87G G128C A137G G152U", "polymerase ribozyme fitness (log ratio)": "≤ -4.2"}, {"variant": "C43U U56A G68C U104A A115C G124A U144G", "polymerase ribozyme fitness (log ratio)": "≤ -4.2"}, {"variant": "C43U U61A G86U A142G A147U", "polymerase ribozyme fitness (log ratio)": "≤ -4.2"}, {"variant": "C43U U139G G141U", "polymerase ribozyme fitness (log ratio)": "≤ -4.2"}, {"variant": "U44A A47C", "polymerase ribozyme fitness (log ratio)": "≤ -4.2"}, {"variant": "U44A A47U C69G G70A C72U C93U A106G", "polymerase ribozyme fitness (log ratio)": "≤ -4.2"}, {"variant": "U44A A47U G50C C57G G65A C96U", "polymerase ribozyme fitness (log ratio)": "≤ -4.2"}, {"variant": "U44A A49U C54U G59U G92A A106U", "polymerase ribozyme fitness (log ratio)": "≤ -4.2"}, {"variant": "U44A A52G G71C C76G C118G U130G U134A", "polymerase ribozyme fitness (log ratio)": "≤ -4.2"}, {"variant": "U44A A52U G65A C85U A97C G117U A142U", "polymerase ribozyme fitness (log ratio)": "≤ -4.2"}, {"variant": "U44A A64U A66C C76A C95U A97C A137U A150G", "polymerase ribozyme fitness (log ratio)": "≤ -4.2"}, {"variant": "U44A A73G G86U A113U C125U", "polymerase ribozyme fitness (log ratio)": "≤ -4.2"}, {"variant": "U44A A89G G92U C149G", "polymerase ribozyme fitness (log ratio)": "≤ -4.2"}, {"variant": "U44A A89U G92C C95U", "polymerase ribozyme fitness (log ratio)": "≤ -4.2"}, {"variant": "U44A A91C G94U C149G", "polymerase ribozyme fitness (log ratio)": "≤ -4.2"}, {"variant": "U44A A97U", "polymerase ribozyme fitness (log ratio)": "≤ -4.2"}, {"variant": "U44A C51U G67U", "polymerase ribozyme fitness (log ratio)": "≤ -4.2"}, {"variant": "U44A C57G C69G G80C U82A C108A U109G G141C", "polymerase ribozyme fitness (log ratio)": "≤ -4.2"}, {"variant": "U44A C57U C69A G94A A115U G117A G141A", "polymerase ribozyme fitness (log ratio)": "≤ -4.2"}, {"variant": "U44A C72G C79A A150C", "polymerase ribozyme fitness (log ratio)": "≤ -4.2"}, {"variant": "U44A C76U G86U A121U", "polymerase ribozyme fitness (log ratio)": -3.86}, {"variant": "U44A C85A", "polymerase ribozyme fitness (log ratio)": "≤ -4.2"}, {"variant": "U44A C85U A89G U104A A138G", "polymerase ribozyme fitness (log ratio)": "≤ -4.2"}, {"variant": "U44A C85U U144A", "polymerase ribozyme fitness (log ratio)": "≤ -4.2"}, {"variant": "U44A C87A A89U A107G U134A A142U", "polymerase ribozyme fitness (log ratio)": "≤ -4.2"}, {"variant": "U44A C93A C108U C125G A142G U145G U146A", "polymerase ribozyme fitness (log ratio)": "≤ -4.2"}, {"variant": "U44A C95U U101G A120C", "polymerase ribozyme fitness (log ratio)": "≤ -4.2"}, {"variant": "U44A C96G C99G G117U U146C", "polymerase ribozyme fitness (log ratio)": "≤ -4.2"}, {"variant": "U44A C116G U130C", "polymerase ribozyme fitness (log ratio)": "≤ -4.2"}, {"variant": "U44A G48A A49C C57G G83A U145A", "polymerase ribozyme fitness (log ratio)": "≤ -4.2"}, {"variant": "U44A G48C G68A", "polymerase ribozyme fitness (log ratio)": "≤ -4.2"}, {"variant": "U44A G50A C79A C99U U102G C108U", "polymerase ribozyme fitness (log ratio)": "≤ -4.2"}, {"variant": "U44A G50A C95U", "polymerase ribozyme fitness (log ratio)": "≤ -4.2"}, {"variant": "U44A G50A U55G G83C C85A U145A U146G", "polymerase ribozyme fitness (log ratio)": "≤ -4.2"}, {"variant": "U44A G50C G59A C85U C95U C116A C123G", "polymerase ribozyme fitness (log ratio)": "≤ -4.2"}, {"variant": "U44A G80A A138U A150G", "polymerase ribozyme fitness (log ratio)": "≤ -4.2"}, {"variant": "U44A G80C", "polymerase ribozyme fitness (log ratio)": "≤ -4.2"}, {"variant": "U44A G83C C85G U146C", "polymerase ribozyme fitness (log ratio)": "≤ -4.2"}, {"variant": "U44A G83U C105G", "polymerase ribozyme fitness (log ratio)": "≤ -4.2"}, {"variant": "U44A G86A C93U C103G C108U G128A", "polymerase ribozyme fitness (log ratio)": "≤ -4.2"}, {"variant": "U44A G88U U111G", "polymerase ribozyme fitness (log ratio)": "≤ -4.2"}, {"variant": "U44A U45A A60U G62C C114U", "polymerase ribozyme fitness (log ratio)": "≤ -4.2"}, {"variant": "U44A U45A C51U C95A C103G", "polymerase ribozyme fitness (log ratio)": "≤ -4.2"}, {"variant": "U44A U53A C85U U109G", "polymerase ribozyme fitness (log ratio)": "≤ -4.2"}, {"variant": "U44A U53A C93G C105U C116G U135C", "polymerase ribozyme fitness (log ratio)": "≤ -4.2"}, {"variant": "U44A U53A G68A G88C", "polymerase ribozyme fitness (log ratio)": "≤ -4.2"}, {"variant": "U44A U55A C57U G88A C99A A122U G128A", "polymerase ribozyme fitness (log ratio)": "≤ -4.2"}, {"variant": "U44A U55G G58U", "polymerase ribozyme fitness (log ratio)": "≤ -4.2"}, {"variant": "U44A U55G G71U C72A A91U G117A U145C", "polymerase ribozyme fitness (log ratio)": "≤ -4.2"}, {"variant": "U44A U56A C57G G59C A89G G140A", "polymerase ribozyme fitness (log ratio)": "≤ -4.2"}, {"variant": "U44A U56A C72U G94A U101C A121G", "polymerase ribozyme fitness (log ratio)": "≤ -4.2"}, {"variant": "U44A U77G G84U C118U", "polymerase ribozyme fitness (log ratio)": "≤ -4.2"}, {"variant": "U44A U82A G92A", "polymerase ribozyme fitness (log ratio)": "≤ -4.2"}, {"variant": "U44A U90C C96U U109A G126C G141U", "polymerase ribozyme fitness (log ratio)": "≤ -4.2"}, {"variant": "U44C G50A G88C A106U G117U G143U", "polymerase ribozyme fitness (log ratio)": "≤ -4.2"}, {"variant": "U44C G83C U148A", "polymerase ribozyme fitness (log ratio)": "≤ -4.2"}, {"variant": "U44C G124C", "polymerase ribozyme fitness (log ratio)": "≤ -4.2"}, {"variant": "U44C G140U", "polymerase ribozyme fitness (log ratio)": "≤ -4.2"}, {"variant": "U44G A47C A66G G67A C87A C96G U145A", "polymerase ribozyme fitness (log ratio)": "≤ -4.2"}, {"variant": "U44G A49U U53A A73G C87G G88U C96U G133A A138G G143U", "polymerase ribozyme fitness (log ratio)": "≤ -4.2"}, {"variant": "U44G A60C G65U G67U G80U", "polymerase ribozyme fitness (log ratio)": "≤ -4.2"}, {"variant": "U44G A91U A137U", "polymerase ribozyme fitness (log ratio)": "≤ -4.2"}, {"variant": "U44G C54A C85A G124A U139A G143U", "polymerase ribozyme fitness (log ratio)": "≤ -4.2"}, {"variant": "U44G C54G C76G C85A", "polymerase ribozyme fitness (log ratio)": "≤ -4.2"}, {"variant": "U44G C54U A91C", "polymerase ribozyme fitness (log ratio)": "≤ -4.2"}, {"variant": "U44G C57G A66G G83C C85U A138C U151G", "polymerase ribozyme fitness (log ratio)": "≤ -4.2"}, {"variant": "U44G C76G G92C A113G", "polymerase ribozyme fitness (log ratio)": "≤ -4.2"}, {"variant": "U44G C76G G124U A147C", "polymerase ribozyme fitness (log ratio)": "≤ -4.2"}, {"variant": "U44G C93G U102G", "polymerase ribozyme fitness (log ratio)": "≤ -4.2"}, {"variant": "U44G G46U C85A C93U A137G U139C U145A", "polymerase ribozyme fitness (log ratio)": "≤ -4.2"}, {"variant": "U44G G48U A115G C131U", "polymerase ribozyme fitness (log ratio)": "≤ -4.2"}, {"variant": "U44G G50A U55A G65A G84U A97U U101C", "polymerase ribozyme fitness (log ratio)": "≤ -4.2"}, {"variant": "U44G G58A U61A C87G A113G", "polymerase ribozyme fitness (log ratio)": "≤ -4.2"}, {"variant": "U44G G58C U61G C63U G67C C69A U78C C95U C105G U146G", "polymerase ribozyme fitness (log ratio)": "≤ -4.2"}, {"variant": "U44G G59A G68A G94C C118G C131A C149U", "polymerase ribozyme fitness (log ratio)": "≤ -4.2"}]}]}
